Test results published in article doi:10.1101/2022.03.02.482667 (bioRxiv, 2022).
Where no end group is shown, it is not given here. Ahx = NCCCCCC(=O)O

T1: Caprin1-derived dodecamer reporter peptide F*-YNFIQDSMLDFE
T1 peptide: {fluorescein-Ahx}-YNFIQDSMLDFE

T2: USP10-derived octameric reporter peptide F*-YIFGDFSP
T2 peptide: {Fluorescein-Ahx}-YIFGDFSP

B1: G3BP1 NTF2 ([…]) F33W (domain or fragment)
chain: not shown
B2: G3BP1 NTF2 ([…]) S38A (domain or fragment)
chain: not shown
B3: G3BP1 NTF2 ([…]) S38G (domain or fragment)
chain: not shown
B4: G3BP1 NTF2 ([…]) S38T (domain or fragment)
chain: not shown

Experiments:
[1] = target: T1, Caprin1-derived dodecamer reporter …; assay: fluorescence polarisation
[2] = target: T2, USP10-derived octameric reporter …; assay: fluorescence polarisation

Binder | fold decrease in affinity against WT [1] | fold decrease in affinity against WT [2] | fold increase in affinity against WT [2]
B1 | 46 fold | 7.5 fold | –
B2 | – | – | 2.9 fold
B3 | – | – | 2.4 fold
B4 | – | 2.4 fold | –
